We go through 86 compounds from publication PMC4336329 (PLoS ONE, 2015).

The campaign covered roughly 310,000 compounds. About 14,000 (4.5%) showed an effect of 50% or more. Effects have a minus sign here. Some of the results follow.
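Also: peak tail current of the secondary pulse compared with the same well before compound.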

The target in the experiment is human ether-à-go-go-related gene (hERG) potassium channel (human, UniProt Q12809). In words: primary screen, population patch clamp on CHO cells stably expressing hERG.
human ether-à-go-go-related gene (hERG) potassium channel, sequence (Q12809 whole entry, looked up): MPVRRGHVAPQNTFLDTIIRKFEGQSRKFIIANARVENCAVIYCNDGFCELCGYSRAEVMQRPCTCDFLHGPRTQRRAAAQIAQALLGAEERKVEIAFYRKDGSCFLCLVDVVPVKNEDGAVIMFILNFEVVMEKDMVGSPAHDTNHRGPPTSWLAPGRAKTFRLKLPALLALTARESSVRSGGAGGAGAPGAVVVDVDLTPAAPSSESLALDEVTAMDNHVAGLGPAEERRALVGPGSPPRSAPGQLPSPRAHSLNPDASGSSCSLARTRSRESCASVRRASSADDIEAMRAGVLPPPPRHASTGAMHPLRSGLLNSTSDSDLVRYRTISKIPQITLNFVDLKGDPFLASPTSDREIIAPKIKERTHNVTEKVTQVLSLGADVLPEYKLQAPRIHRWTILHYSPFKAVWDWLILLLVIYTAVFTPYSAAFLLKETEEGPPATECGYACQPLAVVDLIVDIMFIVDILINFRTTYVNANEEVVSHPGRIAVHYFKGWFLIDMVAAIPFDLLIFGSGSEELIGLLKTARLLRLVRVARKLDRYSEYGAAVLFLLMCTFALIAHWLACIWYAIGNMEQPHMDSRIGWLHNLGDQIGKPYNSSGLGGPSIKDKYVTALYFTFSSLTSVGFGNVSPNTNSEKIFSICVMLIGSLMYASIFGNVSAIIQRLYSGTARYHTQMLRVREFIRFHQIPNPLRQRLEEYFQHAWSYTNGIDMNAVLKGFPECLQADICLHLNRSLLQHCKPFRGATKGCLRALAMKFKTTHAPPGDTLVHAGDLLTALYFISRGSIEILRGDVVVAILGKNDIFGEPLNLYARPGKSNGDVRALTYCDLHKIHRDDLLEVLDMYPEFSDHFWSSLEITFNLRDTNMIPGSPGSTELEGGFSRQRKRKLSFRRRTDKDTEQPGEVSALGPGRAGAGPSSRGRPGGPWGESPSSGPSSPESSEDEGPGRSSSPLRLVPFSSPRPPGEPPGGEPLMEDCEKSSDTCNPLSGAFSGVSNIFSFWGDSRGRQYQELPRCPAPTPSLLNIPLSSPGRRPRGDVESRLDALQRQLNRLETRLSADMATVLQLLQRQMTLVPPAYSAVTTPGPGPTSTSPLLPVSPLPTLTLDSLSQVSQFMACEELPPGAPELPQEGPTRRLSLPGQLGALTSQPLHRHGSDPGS
With `Cc1c(CCC(=O)O)c(=O)oc2cc3occ(C(C)(C)C)c3cc12`, the “hERG current change (%, negative = inhibition) at 10uM” value worked out at 0.152%. Consider `COc1ccc(N2CCN(C(=O)Cn3nnc(-c4ccccc4N)n3)CC2)cc1`, for which the “hERG current change (%, negative = inhibition) at 10uM” value was -2.95%. As for `Cn1c(=O)c2c(ncn2CC(=O)OCC(=O)NC(c2ccccc2)c2ccccc2)n(C)c1=O`, the figure is -2.22%; as for `CCOc1ccc2nc(COC(=O)c3ccncc3)c(C(=O)c3ccccc3)[n+]([O-])c2c1`, 2.8%.

`O=C(Cn1cnc([N+](=O)[O-])n1)N/N=C/c1ccc2ccccc2c1`: the “hERG current change (%, negative = inhibition) at 10uM” value was 13.3%. On to `COc1cc(NC(=O)CCN2CCN(C)CC2)cc(OC)c1`, for which the “hERG current change (%, negative = inhibition) at 10uM” value came to 14.4%. As for `Cc1cc(=O)oc2cc(OCC(=O)NCc3ccco3)ccc12`, the figure is -6.81%; as for `Cl.NCCCCCC(=O)N/N=C/c1coc2ccccc2c1=O`, 5.41%. As for `CC(NC(=O)CSc1nnc(-c2cc3cc(Cl)ccc3o2)n1C)c1ccccc1` (centres unmarked), the figure is -12%; as for `CC(C)CCNC(=O)c1ccc(C2SCC(=O)N2Cc2ccco2)cc1` (centres unmarked), -20.4%; as for `O=C(COC(=O)c1ccc(O)cc1O)Nc1cc(-c2ccccc2)nn1-c1ccccc1`, -9.42%. As for `COc1ccc2[nH]c(C)c(CN3CCC(C)CC3)c(=O)c2c1`, the figure is -44%. Turning to `O=C(c1ccc(Br)s1)N1CCN(c2ncccn2)CC1`, the “hERG current change (%, negative = inhibition) at 10uM” value is -20.3%. As for `O=C(NCCc1ccccc1)C1(c2ccccc2)CC1(Cl)Cl` (centres unmarked), the figure is 7.92%. As for `COc1cc(N=CC2=C(O)c3ccccc3C2=O)cc(OC)c1`, the figure is 8.36%; as for `COc1ccc(C(=O)CSc2nnc(-c3ccco3)n2CC2CCCO2)cc1` (centres unmarked), -11.4%; as for `COc1ccc(N(C(=O)Cn2nnc3ccccc32)C2(C(=O)NC3CCCC3)CCCCC2)cc1`, -36.9%. As for `COc1cccc(CNC(=O)CCS(=O)(=O)Cc2ccc(C)cc2)c1`, the figure is 27%; as for `COCCCNC(=O)Cn1ncc2c(=O)oc3ccccc3c21`, 0.241%; as for `CC(C)C[C@@H](CSc1ccc(Br)cc1)N1CCN(C)CCC1=O`, -64.7%. Regarding `COc1ccc(-c2csc(NC(CO)c3nc4ccccc4n3CCOCCO)n2)cc1` (centres unmarked), the “hERG current change (%, negative = inhibition) at 10uM” value is -43.3%. `O=C(O)c1cc(-c2ccccc2)n(-c2ccc(Cl)cc2Cl)n1`: the “hERG current change (%, negative = inhibition) at 10uM” value stood at 21.5%. As for `O=C(CN(C1CCCCC1)S(=O)(=O)c1ccc(Cl)cc1)NCc1cccnc1`, the figure is -74.4%. In the case of `C=CCNC(=O)CN1CCC(c2nc3ccccc3[nH]2)CC1`, the “hERG current change (%, negative = inhibition) at 10uM” value came out at 7.7%.

`COc1ccccc1C=NC(CO)C(O)c1ccc([N+](=O)[O-])cc1` (centres unmarked): the “hERG current change (%, negative = inhibition) at 10uM” value is -0.196%.

With `COC(=O)Nc1nnc(Cc2ccc(Cl)cc2)s1`, the “hERG current change (%, negative = inhibition) at 10uM” value is -7.28%. As for `COC(=O)CC(NC(=O)CN1CCN(c2ccc(F)cc2)CC1)c1cccc(F)c1` (centres unmarked), the figure is -43.9%. Take `Cc1ccc(S(=O)(=O)N2CCN(c3ccccc3)CC2)cc1C(=O)NC1CCCCC1`: the “hERG current change (%, negative = inhibition) at 10uM” value is reported as -0.43%. As for `COc1ccc(CCC(=O)Nc2cnc3ccccc3c2)cc1`, the figure is -13%; as for `O=C(NCCCn1ccnc1)/C(=C/c1ccc(Cl)cc1)NC(=O)c1ccccc1`, -74.7%; as for `CCOC(=O)c1nn(-c2ccccc2C)c(=O)cc1OCC(=O)Nc1cccc(OC)c1`, 13.2%. As for `Cc1ccc(NC(=O)CCCCCN2C(=O)[C@@H]3Cc4ccccc4CN3C2=O)c(C)c1`, the figure is 2.68%; as for `O=C(CN1CC(=O)Oc2ccccc21)OCC(=O)c1ccc(Br)cc1`, 14.7%; as for `Cl.Fc1cccc(Nc2ncnc3sc4c(c23)CCC4)c1`, -19.2%. Turning to `COc1cc(C2c3c([nH]c(=O)[nH]c3=O)Nc3ccc4ccccc4c32)cc(OC)c1OC` (centres unmarked), the “hERG current change (%, negative = inhibition) at 10uM” value is recorded as 11%. As for `CN(CC(=O)N1CCN(c2ccc(F)cc2)CC1)S(=O)(=O)c1ccc(F)cc1`, the figure is -53.2%; as for `CCC(C)Nc1nc2c(c(=O)[nH]c(=O)n2C)n1CCOc1ccccc1` (centres unmarked), -24.9%; as for `O=C(NCC1CCCO1)c1ccc(C(=O)NCC2CCCO2)cc1` (centres unmarked), 0.974%.

For the compound `O=C(Nc1cccc(NC(=O)c2ccco2)c1)c1ccc2c(c1)OCO2`, the “hERG current change (%, negative = inhibition) at 10uM” value is recorded as -37.5%. As for `C#CCOC(=O)c1ccc(-n2cncn2)nc1`, the figure is -0.64%; as for `Cc1ccc2[nH]c(C)c(CCNC(=O)c3c(N)no[n+]3[O-])c2c1`, 10.1%.

Consider `O=C(CCn1c(=O)[nH]c2ccsc2c1=O)NCCc1ccc(Cl)cc1`, for which the “hERG current change (%, negative = inhibition) at 10uM” value was -0.226%. As for `CCOC(=O)c1nn2c(C(F)(F)F)cc(-c3ccc(OC)cc3)nc2c1Br`, the figure is 21%; as for `O=C(NCCCn1ccnc1)/C(=C/c1ccc(F)cc1)NC(=O)c1ccccc1`, -75.6%. For the compound `CC12CCC(=O)N1c1c(sc3nc(N4CCOCC4)c4c(c13)CCCC4)C(=O)N2` (centres unmarked), the “hERG current change (%, negative = inhibition) at 10uM” value is -37.4%. As for `CN(C)CCCNC(=O)c1cc2c3ccccc3n(C)c2s1`, the figure is -40.1%; as for `COc1ccccc1-c1nn2c(-c3ccco3)nnc2s1`, -5.22%; as for `COc1ccc(CCNc2nc(-c3cccnc3)cs2)cc1OC`, 10.7%. Consider `CCN1CCN(C(=S)c2ccc(SC)cc2)CC1`, for which the “hERG current change (%, negative = inhibition) at 10uM” value is -42.9%. As for `COC(=O)c1c(NC(=O)CN2C(=O)NC3(CCCCC3C)C2=O)sc2c1CCC2` (centres unmarked), the figure is -25.7%; as for `O=C(Nc1cc(S(=O)(=O)N2CCCCCC2)ccc1OCC(F)(F)F)c1ccc(=O)[nH]c1`, -22.1%; as for `Cc1cc(NC(=O)c2cc3n(n2)C(C(F)(F)F)CC(c2ccco2)N3)no1` (centres unmarked), 4.63%. As for `COC(=O)[C@H](C)NC(=O)COc1ccccc1`, the figure is -15.1%; as for `Cc1cnc(C(=O)OCC(=O)Nc2ccc(Cl)cc2Cl)cn1`, -5.56%; as for `CCOC(=O)/C(=N\Nc1cccc(C(F)(F)F)c1)N(CCOC)CCOC`, -14.6%. On to `Cc1ccc(Cn2ccc(NC(=O)c3noc4c3CCc3ccccc3-4)n2)cc1`, for which the “hERG current change (%, negative = inhibition) at 10uM” value is given as 21.5%. As for `O=C(CSc1nc2ccccc2c(=O)n1CCC(=O)N1CCCCC1)NCc1ccccc1`, the figure is -70.4%. `COc1ccc(S(=O)(=O)NC(CC(=O)NCc2ccccc2OC)c2ccco2)cc1` (centres unmarked): the “hERG current change (%, negative = inhibition) at 10uM” value is on record as -23.6%. For the compound `Cc1sc2nc(COC(=O)CNC(=O)c3ccc(C(C)(C)C)cc3)[nH]c(=O)c2c1C`, the “hERG current change (%, negative = inhibition) at 10uM” value came to 14%. As for `COc1ccc(NC(=O)c2c(C(F)(F)F)nn(C)c2Cl)cc1`, the figure is 10.9%; as for `O=C(Nc1ccccc1)C1=C[C@H](C2CCCCC2)C[C@H](OCc2ccc(CO)cc2)O1`, 10.3%. As for `Cc1ccc(OCCCC(=O)N(C)CC(=O)Nc2ccccc2Cl)cc1`, the figure is -7.88%; as for `CCSc1nc2c(cnn2-c2ccc(C)c(C)c2)c(=O)[nH]1`, 9.96%. As for `Nc1c(C(=O)N/N=C/c2ccc([N+](=O)[O-])cc2)sc2nnc(-c3ccccc3)c(-c3ccccc3)c12`, the figure is 12.7%. For the compound `Cc1cc(C(=O)NNS(=O)(=O)c2ccc(F)cc2)nn1C(C)(C)C`, the “hERG current change (%, negative = inhibition) at 10uM” value was found to be 6.38%. In the case of `CCOC(=O)C(NC(=O)c1ccccc1)=C1CCCCC1`, the “hERG current change (%, negative = inhibition) at 10uM” value worked out at 8.21%.

As to `O=C(CCCn1cncn1)N1CCCC(N2CCN(c3ccccc3F)CC2)C1` (centres unmarked), the “hERG current change (%, negative = inhibition) at 10uM” value was 2.83%. As for `O=C(c1cc(=O)c2ccccc2o1)N1CCCc2ccccc21`, the figure is -10.6%. As for `O=C(NC1CC1)C1=C[C@@H](c2ccc3c(c2)OCO3)C[C@@H](OCCCCO)O1`, the figure is 1.44%; as for `CN1C=C(C(F)(F)F)C=C/C1=C(\C#N)c1nnc2n1CCCCC2`, 2.33%; as for `Cn1cc(S(=O)(=O)N2CCC(C(N)=O)CC2)c(=O)n(C)c1=O`, -1.5%.

With `O=C(CNC(=O)c1cccc(OC(F)F)c1)OCc1cc(=O)n2cc(Br)ccc2n1`, the “hERG current change (%, negative = inhibition) at 10uM” value is listed as -55.2%. As for `C#C[C@]1(O)CC[C@H]2[C@@H]3[C@H](C)CC4=C(CCC(=O)C4)[C@H]3CC[C@@]21C`, the figure is 1.24%; as for `Cc1nc(NCCc2ccc(S(N)(=O)=O)cc2)c2c(C)c(C)sc2n1`, 4.01%. As for `N#C/C(=C/c1ccccc1[N+](=O)[O-])c1nnc2n1CCCCC2`, the figure is 3.08%. `COc1cc(NC(=O)Cc2ccccc2)ccc1NC(=O)Cc1ccccc1`: the “hERG current change (%, negative = inhibition) at 10uM” value was 20.9%. As for `O=C(COC(=O)Cc1ccc(Cl)cc1)NCc1ccc(F)cc1`, the figure is -1.16%. As for `COc1ccc(C2CC(c3ccccc3)=NN2C(=O)c2ccc(Cl)c([N+](=O)[O-])c2)cc1` (centres unmarked), the figure is 7.73%.

As for `CC(=O)Nc1cc(-c2ccc(Cl)cc2)[nH]n1`, the “hERG current change (%, negative = inhibition) at 10uM” value was found to be 4.9%. As for `COc1cc(/C=C(\C#N)c2nc3c(s2)CC(C)CC3)ccc1O` (centres unmarked), the figure is 10.1%; as for `CN(C)CCn1cnc2ccccc21.Cl`, 10.1%. As for `CN1C(=O)N(C)C(=O)C2(Cc3cc([N+](=O)[O-])ccc3N3CCN(C(=O)c4ccccc4)CC32)C1=O` (centres unmarked), the figure is -65%; as for `Cc1cccc(CSc2[nH]c(=O)ncc2C)c1`, 16.8%; as for `N#Cc1ccc(-c2ccc(F)cc2)nc1Oc1ccc(Cl)c(Cl)c1`, 21.8%. For `CCCCCCNS(=O)(=O)c1ccccc1Br`, the “hERG current change (%, negative = inhibition) at 10uM” value is -19.2%.

Take `COc1cccc(-c2csc(N3CCN(C(=S)Nc4ccccc4C)CC3)n2)c1`: the “hERG current change (%, negative = inhibition) at 10uM” value was 23.7%.
